The record followed here is article PMC8354638.

Protein sequences, listed by entry. Tags and fused reporters are not part of them.
UniProt Q9Y4B6: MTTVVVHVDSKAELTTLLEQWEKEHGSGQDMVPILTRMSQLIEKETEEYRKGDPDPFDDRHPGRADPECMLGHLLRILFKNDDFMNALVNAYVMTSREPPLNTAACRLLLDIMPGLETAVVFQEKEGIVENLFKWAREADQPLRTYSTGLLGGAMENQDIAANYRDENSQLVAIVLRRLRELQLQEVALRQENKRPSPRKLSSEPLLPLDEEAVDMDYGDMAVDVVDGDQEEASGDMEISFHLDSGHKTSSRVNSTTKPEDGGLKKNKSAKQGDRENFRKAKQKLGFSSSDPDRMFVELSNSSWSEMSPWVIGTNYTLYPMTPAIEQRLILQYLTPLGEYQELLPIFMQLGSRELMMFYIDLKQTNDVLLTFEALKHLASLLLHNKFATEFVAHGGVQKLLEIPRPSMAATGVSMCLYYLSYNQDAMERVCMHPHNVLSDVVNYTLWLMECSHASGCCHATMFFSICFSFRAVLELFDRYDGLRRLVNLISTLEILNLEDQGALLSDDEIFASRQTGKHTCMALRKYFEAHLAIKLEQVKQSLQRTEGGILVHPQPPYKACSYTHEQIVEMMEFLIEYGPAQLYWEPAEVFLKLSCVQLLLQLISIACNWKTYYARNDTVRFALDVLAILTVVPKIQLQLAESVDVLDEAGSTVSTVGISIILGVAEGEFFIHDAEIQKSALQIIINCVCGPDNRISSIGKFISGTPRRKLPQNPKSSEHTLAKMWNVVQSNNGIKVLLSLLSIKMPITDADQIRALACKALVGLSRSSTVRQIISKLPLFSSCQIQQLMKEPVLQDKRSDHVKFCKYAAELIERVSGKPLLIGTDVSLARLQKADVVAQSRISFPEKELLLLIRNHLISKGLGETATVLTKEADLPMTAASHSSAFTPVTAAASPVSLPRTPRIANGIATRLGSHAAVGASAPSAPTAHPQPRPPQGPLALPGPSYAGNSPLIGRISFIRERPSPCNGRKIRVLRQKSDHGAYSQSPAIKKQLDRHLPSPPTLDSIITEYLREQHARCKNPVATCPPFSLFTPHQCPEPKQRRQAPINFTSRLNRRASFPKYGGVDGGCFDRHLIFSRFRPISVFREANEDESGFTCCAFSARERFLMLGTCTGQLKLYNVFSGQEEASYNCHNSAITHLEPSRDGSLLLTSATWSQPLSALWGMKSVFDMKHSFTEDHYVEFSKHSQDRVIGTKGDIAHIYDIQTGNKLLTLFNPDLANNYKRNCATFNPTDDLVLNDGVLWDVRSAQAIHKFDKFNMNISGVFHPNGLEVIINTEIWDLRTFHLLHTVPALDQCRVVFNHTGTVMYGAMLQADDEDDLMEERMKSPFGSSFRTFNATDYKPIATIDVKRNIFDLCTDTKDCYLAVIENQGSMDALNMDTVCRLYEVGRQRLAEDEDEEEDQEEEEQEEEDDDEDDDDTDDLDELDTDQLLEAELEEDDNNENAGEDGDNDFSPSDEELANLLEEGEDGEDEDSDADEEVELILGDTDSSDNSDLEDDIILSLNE

Read-outs that look alike come from different tables or passages of the source. No constants are given. Whether binding was seen depends on the method and setting. Binding seen in cells or lysates may run through a third protein. Some entries that bind do so weakly or less than the wild type. Tags and fused reporters may be left off the sequences shown.

One assay concerns the target T1, GFP-CEP78 (human) (UniProt Q5JTW2).
T1 sequence: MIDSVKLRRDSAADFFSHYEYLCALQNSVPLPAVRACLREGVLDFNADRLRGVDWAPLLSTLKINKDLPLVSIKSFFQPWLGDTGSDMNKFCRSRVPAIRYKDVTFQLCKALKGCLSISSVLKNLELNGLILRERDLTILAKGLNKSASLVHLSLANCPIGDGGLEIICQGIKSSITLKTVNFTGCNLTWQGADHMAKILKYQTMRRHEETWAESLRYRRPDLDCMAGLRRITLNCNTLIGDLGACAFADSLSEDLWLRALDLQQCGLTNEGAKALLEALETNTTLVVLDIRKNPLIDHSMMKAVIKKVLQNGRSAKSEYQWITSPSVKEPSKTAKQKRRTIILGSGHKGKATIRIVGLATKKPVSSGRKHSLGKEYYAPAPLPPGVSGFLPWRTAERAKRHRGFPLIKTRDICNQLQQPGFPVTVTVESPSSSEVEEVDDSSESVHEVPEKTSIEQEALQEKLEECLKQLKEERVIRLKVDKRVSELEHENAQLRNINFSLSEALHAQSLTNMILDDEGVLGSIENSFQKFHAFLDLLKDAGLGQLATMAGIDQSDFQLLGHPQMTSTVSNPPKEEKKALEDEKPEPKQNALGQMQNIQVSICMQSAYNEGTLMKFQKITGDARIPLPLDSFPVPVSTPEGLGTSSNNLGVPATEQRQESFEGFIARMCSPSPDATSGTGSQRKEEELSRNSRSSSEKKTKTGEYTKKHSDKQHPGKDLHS
The assay is described as follows: co-IP; transfected 293T cell lysates (modified EBC buffer), IP with GFP antibody beads, western blot with Myc, GFP, FOP or VPRBP antibodies. On the technique in general: In western blotting, separated proteins are transferred to a membrane and probed.

Assay [1] deals with T2, Myc-CEP350 N-terminus (aa1-983) (human) (UniProt Q5VT06).
T2 sequence: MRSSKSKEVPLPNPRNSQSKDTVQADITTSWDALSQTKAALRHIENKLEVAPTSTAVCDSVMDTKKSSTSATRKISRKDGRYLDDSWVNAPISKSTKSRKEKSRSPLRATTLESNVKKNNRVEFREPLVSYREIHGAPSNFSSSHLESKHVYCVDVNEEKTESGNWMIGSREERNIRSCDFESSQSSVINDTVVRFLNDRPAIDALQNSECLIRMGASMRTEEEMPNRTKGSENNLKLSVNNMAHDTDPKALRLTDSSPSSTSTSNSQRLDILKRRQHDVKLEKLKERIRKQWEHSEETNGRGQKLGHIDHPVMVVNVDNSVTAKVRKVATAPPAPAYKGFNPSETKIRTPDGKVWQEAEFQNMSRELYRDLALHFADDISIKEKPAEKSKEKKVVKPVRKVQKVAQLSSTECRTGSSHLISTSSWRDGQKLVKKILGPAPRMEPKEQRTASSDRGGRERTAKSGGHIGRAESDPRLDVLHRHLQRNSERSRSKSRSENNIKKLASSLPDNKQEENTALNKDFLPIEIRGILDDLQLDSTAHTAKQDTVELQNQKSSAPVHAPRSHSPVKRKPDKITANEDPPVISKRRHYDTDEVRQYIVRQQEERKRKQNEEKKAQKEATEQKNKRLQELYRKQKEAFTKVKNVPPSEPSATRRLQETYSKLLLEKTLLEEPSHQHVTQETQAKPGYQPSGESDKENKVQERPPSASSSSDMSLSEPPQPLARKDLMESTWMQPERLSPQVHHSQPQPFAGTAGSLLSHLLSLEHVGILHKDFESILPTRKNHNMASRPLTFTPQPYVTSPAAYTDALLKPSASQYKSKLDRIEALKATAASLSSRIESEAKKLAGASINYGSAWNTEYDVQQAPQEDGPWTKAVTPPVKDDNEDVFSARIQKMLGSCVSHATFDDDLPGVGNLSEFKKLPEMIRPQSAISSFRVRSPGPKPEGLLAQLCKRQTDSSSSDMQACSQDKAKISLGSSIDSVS
The assay is described as follows: co-IP; transfected 293T cell lysates (modified EBC buffer), IP with Myc antibody-coated beads, western blot with VPRBP, Myc, FOP or GFP antibodies.

Assay [2] deals with T3, FLAG-CEP78 (human) (UniProt Q5JTW2).
T3 sequence: T1 sequence
The assay is described as follows: co-IP; transfected 293T cell lysates (modified EBC buffer), IP with anti-FLAG beads, western blot of the pellets.

Assay [3] concerns the target T4, Myc-CEP350 C-terminus (aa2990-3117) (human) (UniProt Q5VT06).
T4 sequence: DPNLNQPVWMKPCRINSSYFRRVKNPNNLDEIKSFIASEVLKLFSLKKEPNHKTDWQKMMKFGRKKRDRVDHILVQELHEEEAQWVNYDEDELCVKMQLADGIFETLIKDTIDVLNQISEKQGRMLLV
Kind of assay: co-IP; transfected 293T cell lysates (modified EBC buffer), IP with Myc antibody-coated beads, western blot with VPRBP, Myc, FOP or GFP antibodies.

The target in assay [4] is T3, FLAG-CEP78 (human). The assay is described as follows: co-IP; transfected 293T cell lysates (modified EBC buffer), IP with anti-FLAG beads, western blot of the pellets. This is another data set of the same source.

On to “endogenous VPRBP (from UniProt Q9Y4B6 1-1507)”, for which the binding entry is “binds” in the assay with GFP-CEP78 (human) and “no binding” in assay [1].

For Myc-VPRBP (from UniProt Q9Y4B6 1-1507), the binding entry with FLAG-CEP78 (human) [2] was “binds”.

B1: endogenous FOP (protein, UniProt O95684 1-399)
chain: MAATAAAVVAEEDTELRDLLVQTLENSGVLNRIKAELRAAVFLALEEQEKVENKTPLVNESLKKFLNTKDGRLVASLVAEFLQFFNLDFTLAVFQPETSTLQGLEGRENLARDLGIIEAEGTVGGPLLLEVIRRCQQKEKGPTTGEGALDLSDVHSPPKSPEGKTSAQTTPSKIPRYKGQGKKKTSGQKAGDKKANDEANQSDTSVSLSEPKSKSSLHLLSHETKIGSFLSNRTLDGKDKAGLCPDEDDMEGDSFFDDPIPKPEKTYGLRKEPRKQAGSLASLSDAPPLKSGLSSLAGAPSLKDSESKRGNTVLKDLKLISDKIGSLGLGTGEDDDYVDDFNSTSHRSEKSEISIGEEIEEDLSVEIDDINTSDKLDDLTQDLTVSQLSDVADYLEDVA
Consider B1, for which the binding entry with GFP-CEP78 (human) is recorded as “no binding”; in assay [3] it was “binds”.

B2: FLAG-CEP78 (protein, UniProt Q5JTW2-2 1-722)
chain: T1 sequence
As for B2, in the assay with FLAG-CEP78 (human) [4], the binding entry was “binds”.

B3: GFP-CEP78 (protein, UniProt Q5JTW2-2 1-722)
chain: T1 sequence
On to B3, for which the binding entry in assay [1] is on record as “binds”.
